Measurements taken from publication PMC12079483, “Reshape the Fates of Treg and CD8+T Cells Through IL‐2Rα by Synergizing Divergent Receptor‐Biased IL‐2 PEGylates” (Advanced Science, 2025).
One block for each binder: values may come before it.

Tests used:
[1] = molecular target: T1, extracellular domains of the dimeric IL-2 receptor (IL-2Rβγ) (UniProt P14784 27-240; P31785 23-262); test: SPR; BIAcore8K; IL-2 and PEGylated IL-2 variants against the extracellular domains of the α, β, αβγ and βγ subunits of IL-2R; the shown text does not say which partner was immobilised or give buffer and temperature; settings: both partners purified
T1 construct: IL-2 receptor β chain, extracellular domain; IL-2 receptor γ chain (common γ chain), extracellular domain
T1 sequence (looked up) 1: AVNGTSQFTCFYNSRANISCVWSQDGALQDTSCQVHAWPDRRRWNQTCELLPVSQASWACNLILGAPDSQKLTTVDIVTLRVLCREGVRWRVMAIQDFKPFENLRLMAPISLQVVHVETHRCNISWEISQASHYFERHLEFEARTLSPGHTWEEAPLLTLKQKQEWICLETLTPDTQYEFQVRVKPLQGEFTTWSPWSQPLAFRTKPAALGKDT
T1 sequence (looked up) 2: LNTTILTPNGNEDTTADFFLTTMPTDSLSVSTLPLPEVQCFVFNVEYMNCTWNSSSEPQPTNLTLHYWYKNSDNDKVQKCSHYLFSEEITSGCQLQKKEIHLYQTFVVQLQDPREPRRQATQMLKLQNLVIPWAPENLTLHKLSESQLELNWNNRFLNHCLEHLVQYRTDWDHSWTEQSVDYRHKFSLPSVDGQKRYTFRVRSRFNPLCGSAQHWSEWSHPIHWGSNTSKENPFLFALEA

[2] = molecular target: T2, extracellular domains of the trimeric IL-2 receptor (IL-2Rαβγ) (UniProt P01589 22-240; P14784 27-240; P31785 23-262); test: as above; settings: both partners purified
T2 construct: IL-2 receptor α chain (CD25), extracellular domain; IL-2 receptor β chain, extracellular domain; IL-2 receptor γ chain (common γ chain), extracellular domain; copies: + +
T2 sequence (looked up) 1: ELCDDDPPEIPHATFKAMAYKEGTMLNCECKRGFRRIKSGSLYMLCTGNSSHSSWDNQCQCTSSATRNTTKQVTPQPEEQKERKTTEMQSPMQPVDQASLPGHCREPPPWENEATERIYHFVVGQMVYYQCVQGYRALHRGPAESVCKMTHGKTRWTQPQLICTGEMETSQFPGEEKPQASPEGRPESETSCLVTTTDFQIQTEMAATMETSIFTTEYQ
T2 sequence (looked up) 2: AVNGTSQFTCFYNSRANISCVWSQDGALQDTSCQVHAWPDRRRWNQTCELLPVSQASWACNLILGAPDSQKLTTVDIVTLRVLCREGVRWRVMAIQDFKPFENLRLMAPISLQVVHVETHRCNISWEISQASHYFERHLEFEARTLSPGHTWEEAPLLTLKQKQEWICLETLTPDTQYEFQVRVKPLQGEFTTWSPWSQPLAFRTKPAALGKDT
T2 sequence (looked up) 3: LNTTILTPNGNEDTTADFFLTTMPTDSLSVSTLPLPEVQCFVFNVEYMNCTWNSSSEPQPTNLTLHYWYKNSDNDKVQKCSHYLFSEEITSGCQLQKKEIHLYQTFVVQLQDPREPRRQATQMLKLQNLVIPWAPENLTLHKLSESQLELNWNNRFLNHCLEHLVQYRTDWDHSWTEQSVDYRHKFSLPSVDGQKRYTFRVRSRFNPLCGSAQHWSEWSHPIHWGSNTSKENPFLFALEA

[3] = molecular target: T3, extracellular domain of the IL-2 receptor α chain (IL-2Rα, CD25) (UniProt P01589 22-240); test: as above; settings: both partners purified
T3 construct: IL-2 receptor α chain (CD25), extracellular domain; also called α subunit
T3 sequence (looked up): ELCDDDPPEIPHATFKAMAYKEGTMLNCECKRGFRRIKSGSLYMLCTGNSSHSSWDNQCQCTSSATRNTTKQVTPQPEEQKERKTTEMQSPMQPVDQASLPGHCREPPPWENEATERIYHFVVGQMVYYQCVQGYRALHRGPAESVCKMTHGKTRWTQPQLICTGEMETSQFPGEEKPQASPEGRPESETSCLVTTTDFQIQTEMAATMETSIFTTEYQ

[4] = molecular target: T4, extracellular domain of the IL-2 receptor β chain (IL-2Rβ) (UniProt P14784 27-240); test: as above; settings: both partners purified
T4 construct: IL-2 receptor β chain, extracellular domain
T4 sequence (looked up): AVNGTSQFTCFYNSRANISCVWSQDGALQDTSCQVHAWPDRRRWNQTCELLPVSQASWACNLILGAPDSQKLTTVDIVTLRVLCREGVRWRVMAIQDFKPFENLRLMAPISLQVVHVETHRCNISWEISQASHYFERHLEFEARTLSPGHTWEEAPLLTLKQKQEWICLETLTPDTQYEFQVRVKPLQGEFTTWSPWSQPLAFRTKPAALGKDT

[5] = molecular target: T2, extracellular domains of the trimeric …; test: cell-based or functional assay
[6] = molecular target: T1, extracellular domains of the dimeric …; test: cell-based or functional assay
[7] = molecular target: T5, mouse IL-2Rα extracellular domain (mouse, UniProt P01590 22-236); test: SPR; BIAcore8K; extracellular domain of mouse IL-2Rα; His-tagged CD25 immobilised by amine coupling; 25 °C; 10 mM HEPES, 150 mM NaCl, 3 mM EDTA, 0.05% Surfactant P, pH 7.4; flow 30 μl/min, contact 120 s, dissociation 600 s; settings: both partners purified
T5 construct: interleukin-2 receptor subunit alpha (CD25), mouse, extracellular domain; also called CD25; α subunit of the mouse IL-2 receptor; source: bought: Sinobiological; not shown: 6xHis, C-terminal, kept
T5 sequence (looked up): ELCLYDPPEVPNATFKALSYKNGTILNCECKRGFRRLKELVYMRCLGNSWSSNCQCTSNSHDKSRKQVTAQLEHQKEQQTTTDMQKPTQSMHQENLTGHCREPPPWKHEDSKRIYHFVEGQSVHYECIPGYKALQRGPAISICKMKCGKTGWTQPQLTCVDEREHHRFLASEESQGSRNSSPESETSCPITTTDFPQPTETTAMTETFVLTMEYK

fold reduction of affinity versus wild-type IL-2 [2]: 1200 fold
fold reduction of affinity versus wild-type IL-2 [3]: 10 fold
fold reduction of affinity versus wild-type IL-2 [4]: > 1000 fold
B3: D20-20K (IL-2 with 20K PEG conjugated at Asp20) (ligand)
chain: not shown
modifications: Nε-2-azideoethyloxycarbonyl-L-lysine (NAEK) at position 20, conjugated with DBCO-tethered PEG of 20 kDa by copper-free click reaction
notes: interleukin-2; residues chosen on PDB 2ERJ; The new residue is written as K because NAEK is a lysine derivative; also called not-β IL-2; not-β IL-2 variant; source: E. coli OrigamiB (DE3) containing pSURAR-YAV, NAEK incorporated at an amber codon, conjugated with DBCO-PEG, purified

EC50 of STAT5 phosphorylation (pSTAT5, flow cytometry, 30 min stimulation) in mouse Treg cells [5]: 1.12 µg mL^−1
EC50 of STAT5 phosphorylation (pSTAT5, flow cytometry, 30 min stimulation) in mouse CD8+ T cells [6]: 6.83 µg mL^−1
Kd [2]: 38.4 nM
fold reduction of affinity versus wild-type IL-2 [2]: 800 fold
fold reduction of affinity versus wild-type IL-2 [1]: 16.8 fold
fold reduction of affinity versus wild-type IL-2 [4]: 2.3 fold
B4: Y45-20K (IL-2 with 20K PEG conjugated at Tyr45) (ligand)
chain: not shown
modifications: Nε-2-azideoethyloxycarbonyl-L-lysine (NAEK) at position 45, conjugated with DBCO-tethered PEG of 20 kDa by copper-free click reaction
notes: interleukin-2; residues chosen on PDB 2ERJ; The new residue is written as K because NAEK is a lysine derivative; also called not-α IL-2; not-α IL-2 PEGylate; source: E. coli OrigamiB (DE3) containing pSURAR-YAV, NAEK incorporated at an amber codon, conjugated with DBCO-PEG, purified

The remaining lines, values behind:

B1: D20-5K (IL-2 with 5K PEG conjugated at Asp20) (ligand)
chain: not shown
modifications: Nε-2-azideoethyloxycarbonyl-L-lysine (NAEK) at position 20, conjugated with DBCO-tethered PEG of 5 kDa
notes: interleukin-2; residues chosen on PDB 2ERJ; The new residue is written as K because NAEK is a lysine derivative; source: E. coli OrigamiB (DE3) containing pSURAR-YAV, NAEK incorporated at an amber codon, conjugated with DBCO-PEG, purified
Kd [1]: 149 to 213 nM

B2: D20-10K (IL-2 with 10K PEG conjugated at Asp20) (ligand)
chain: not shown
modifications: Nε-2-azideoethyloxycarbonyl-L-lysine (NAEK) at position 20, conjugated with DBCO-tethered PEG of 10 kDa
notes: as for B1
Kd [1]: 149 to 213 nM

B5: D20-20K (Asp20-conjugated 20K-PEG IL-2) (ligand)
chain: not shown
modifications: Nε-2-azideoethyloxycarbonyl-l-lysine (NAEK) at 20, conjugated with DBCO-PEG 20 kDa
notes: interleukin-2 with Asp20 replaced by NAEK (amber codon) and PEGylated; The new residue is the unnatural lysine derivative NAEK carrying a 20 kDa PEG; K stands for it; also called not-β IL-2 PEGylate; source: E. coli TransB (DE3) with pSURAR-YAV, purified (Ni-NTA, click reaction with DBCO-PEG, Resource S, Superdex 200)
Kd [7]: 289 nM
